Values after ≈ are worked out from the molar mass of the structure shown. Values joined by “and” are separate entries in the source; they are usually repeats but may differ in a detail not shown here. Equal values may be shown once. Read-outs that look alike come from different tables or passages of the source.
Experiments:
[1] = system: intraphagocytic S. aureus ATCC 25923 (THP-1 macrophages); assay: microbe, parasite or virus in culture; type: cell-based
S. aureus ATCC 25923 [2] = assay: microbe, parasite or virus in culture; type: cell-based; conditions: Staphylococcus aureus
S. aureus ATCC 25923 [3] = assay: microbe, parasite or virus in culture; type: cell-based
[4] = system: intraphagocytic L. pneumophila ATCC 33153 (THP-1 macrophages); assay: microbe, parasite or virus in culture; type: cell-based; conditions: for Cs, static concentration at 24 h: intracellular
THP-1 macrophages = conditions: human
[5] = system: S. epidermidis (095-2777A)
S. aureus RN220 = assay: microbe, parasite or virus in culture; type: cell-based
[6] = system: intraphagocytic L. monocytogenes EGD (THP-1 macrophages); assay: microbe, parasite or virus in culture; type: cell-based
[7] = system: M. leprae Thai-53 isolate; type: cell-based
[8] = system: S. aureus (ATCC 25923) in THP-1 macrophages
[9] = system: S. aureus 96:11480 Ery-R (MLSb); assay: microbe, parasite or virus in culture; type: cell-based; conditions: Staphylococcus aureus, read-out: Minimum inhibitory concentration, S. aureus 96:11480 Ery-R (MLSb)
[10] = system: S. pneumoniae 163 Ery-R (MefA); assay: microbe, parasite or virus in culture; type: cell-based; conditions: Streptococcus pneumoniae, read-out: Minimum inhibitory concentration, S. pneumoniae 163 Ery-R (MefA)
[11] = system: S. pneumoniae 303 Ery-R (ermB); assay: microbe, parasite or virus in culture; type: cell-based; conditions: Streptococcus pneumoniae
[12] = system: H. influenzae 49247 Ery-S; assay: microbe, parasite or virus in culture; type: cell-based; conditions: Haemophilus influenzae, 49247ERYS, read-out: Minimum inhibitory concentration, H. influenzae 49247 Ery-S
[13] = Staphylococcus aureus, ATCC25923, THP-1, 24 h
[14] = ATCC25923, pH 5.5, read-out: MICs
[15] = ATCC25923, pH 7.4, read-out: MICs
[16] = Staphylococcus aureus, ATCC25923, 24 h
[17] = L. p., at 24 h compared to the post-phagocytosis inoculum
[18] = Listeria monocytogenes, THP-1, 24 h
[19] = L. pneumophila ATCC 33153, 48 h
[20] = Legionella pneumophila, ATCC33153, THP-1, 48 h

SMILES	Cs [1]	Cs, static concentration at 24 h [1]	EC50 [1]	Intracellular activity (24 h): Emax [1]	Intracellular activity (24 h): Static dose [1]	EC50 [1, 13]	MIC (S. aureus ATCC 25923 [2]; ATCC25923)	MIC (S. aureus ATCC 25923 [2]; [14])	EC50 (S. aureus ATCC 25923 [3])	EC50 (S. aureus ATCC 25923 [3]; [16])	Extracellular activity (24 h): Emax (S. aureus ATCC 25923 [3]; pH 5.5)	Extracellular activity (24 h): Emax (S. aureus ATCC 25923 [3]; pH 7.4)	Emax [4, 17]	accumulation level within 24 h (THP-1 macrophages)	Antimicrobial activity (time kill curve) (S. aureus (ATCC 29213))	Antimicrobial activity (time kill curve) [5]	Antimicrobial activity (time kill curve) (E. faecalis (ATCC 29212))	Antimicrobial activity (time kill curve) (S. pyogenes (117-1612A))	Antimicrobial activity (time kill curve) (S. mitis (112-1885A))	MIC, S. aureus RN220 (S. aureus RN220)	also measured
CC[C@H]1OC(=O)[C@H](C)[C@@H](O[C@H]2C[C@@](C)(OC)[C@@H](O)[C@H](C)O2)[C@H](C)[C@@H](O[C@@H]2O[C@H](C)C[C@H](N(C)C)[C@H]2O)[C@](C)(OC)C[C@@H](C)C(=O)[C@H](C)[C@@H](O)[C@]1(C)O [CLR, Clarithromycin]	~0.86 mg/L	0.84 mg/L	0.093 x MIC	−0.1 ± 0.1 Δ log cfu	~0.98 mg/L	0.046 µg/mL (≈ 0.0615 µM)	0.5 µg/mL (≈ 0.668 µM)	16 µg/mL (≈ 21.4 µM)	1.59 x MIC	0.8 µg/mL (≈ 1.07 µM)	−1.5 ± 0.8 Δ log cfu	−1.4 ± 0.2 Δ log cfu	−0.71 Δ log10 CFU	30 fold	Cidal at 8X only	Static	Static	Cidal at 8X only (slow killing)	Cidal at 8X only (slow killing)	–	MIC (S. aureus ATCC 25923 [2]; [15]): 0.5 µg/mL (≈ 0.668 µM); Emax (S. aureus ATCC 25923 [3]): −1.41 log10 units; Extracellular activity (24 h): Static dose (S. aureus ATCC 25923 [3]; pH 5.5): ~10.47 mg/L; Extracellular activity (24 h): Static dose (S. aureus ATCC 25923 [3]; pH 7.4): ~1.41 mg/L; Cs, static concentration at 24 h ([4]; L. p.): 0.12 mg/L
CC[C@H]1OC(=O)[C@H](C)[C@@H](OC2CC(C)(OC)C(O)C(C)O2)[C@H](C)[C@@H](OC2OC(C)CC(N(C)C)C2O)[C@@](C)(OC)C[C@@H](C)C(=O)[C@H](C)[C@H]2N(CCCCn3cc(-c4ccccn4)nn3)C(=O)O[C@]12C (some centres unmarked) [Entry 20a]	–	–	–	–	–	–	–	–	–	–	–	–	–	–	–	–	–	–	–	8 µg/mL (≈ 8.22 µM)	–
CC[C@H]1OC(=O)[C@H](C)[C@@H](OC2CC(C)(OC)C(O)C(C)O2)[C@H](C)[C@@H](OC2OC(C)CC(N(C)C)C2O)[C@@](C)(OC)C[C@@H](C)C(=O)[C@H](C)[C@H]2N(CCCCn3cc(Cn4nnc5ccccc54)nn3)C(=O)O[C@]12C (some centres unmarked) [Entry 20e]	–	–	–	–	–	–	–	–	–	–	–	–	–	–	–	–	–	–	–	58 µg/mL (≈ 56.5 µM)	–
CC[C@H]1OC(=O)[C@H](C)[C@@H](OC2CC(C)(OC)C(O)C(C)O2)[C@H](C)[C@@H](OC2OC(C)CC(N(C)C)C2O)[C@@](C)(OC)C[C@@H](C)C(=O)[C@H](C)[C@H]2N(CCCCn3cc(-c4cccnc4)nn3)C(=O)O[C@]12C (some centres unmarked) [Entry 20b]	–	–	–	–	–	–	–	–	–	–	–	–	–	–	–	–	–	–	–	8 µg/mL (≈ 8.22 µM)	–
CC[C@H]1OC(=O)[C@@](C)(F)C(=O)[C@H](C)[C@@H](OC2OC(C)CC(N(C)C)C2O)[C@@](C)(OC)C[C@@H](C)C(=O)[C@H](C)[C@H]2N(CCCCn3cc(-c4cccc(N)c4)nn3)C(=O)O[C@]12C (some centres unmarked) [CEM-101, 11-N-4-(3-aminophenyl)-[1,2,3]triazol-1-yl]-butyl}-5-desosaminyl-3-oxo-2-fluoro-erythronolide A,-11,12-cyclic carbamate]	~0.01 mg/L	–	0.11 x MIC	−0.8 ± 0.2 Δ log cfu	~0.02 mg/L	0.0068 µg/mL (≈ 0.00805 µM)	–	–	0.48 x MIC	0.03 µg/mL (≈ 0.0355 µM)	−1.6 ± 0.4 Δ log cfu	−1.4 ± 0.1 Δ log cfu	−1.03 Δ log10 CFU	about 375 fold	Cidal at 2X, 4X, 8X	Cidal at 2X, 4X, 8X	Static	Cidal at 8X only	Cidal at 2X, 4X, 8X	–	Emax, reduction of the intracellular inoculum [1]: ~1 log; Intracellular activity: Static dose [1]: ~0.02 mg/L and ~0.03 mg/L; Extracellular activity (24 h): Static dose (S. aureus ATCC 25923 [3]; pH 5.5): ~1.48 mg/L; EC50 [6]: 5.00 X MIC; EC50 [6, 18]: 0.02 µg/mL (≈ 0.0237 µM); EC50 [4, 19]: 13.1 x MIC; Emax [4, 19]: −1.03 logo units; EC50 [4, 20]: 0.052 µg/mL (≈ 0.0615 µM); viability of M. leprae, axenic cultures [7]: significantly (P<0.001) reduce the viability; efflux: time for release of half of the cell-associated drug (THP-1 macrophages): approximately 10 min; time to achieve the antibacterial effect in broth (S. aureus (ATCC 25923)): 1 h; time to maximal decrease of CFU (S. aureus (ATCC 25923)): ≤ 1 h; reduction of CFU in THP-1 macrophages [8]: approximately 1.5 log10 CFU; Antimicrobial activity (time kill curve) (S. pneumoniae (075-241B)): Static; Antimicrobial activity (time kill curve) (S. pyogenes (088-11708A)): Cidal at 2X, 4X, 8X
CC[C@H]1OC(=O)[C@H](C)[C@@H](O[C@H]2C[C@@](C)(OC)[C@@H](O)[C@H](C)O2)[C@H](C)[C@@H](O[C@@H]2O[C@H](C)C[C@H](N(C)C)[C@H]2O)[C@](C)(O)C[C@@H](C)CN(C)[C@H](C)[C@@H](O)[C@]1(C)O [AZI, Azithromycin]	>50 mg/L	>50 mg/L	0.22 x MIC	0.10 ± 0.0 Δ log cfu and 0.1 ± 0.1 Δ log cfu	~7.8 mg/L and ~10 mg/L	0.11 µg/mL (≈ 0.147 µM)	0.5 µg/mL (≈ 0.668 µM)	256 µg/mL (≈ 342 µM)	3.55 x MIC	1.78 µg/mL (≈ 2.38 µM)	+2.1 ± 0.1 Δ log cfu	−1.2 ± 0.6 Δ log cfu	−0.83 Δ log10 CFU	160 fold	Cidal at 8X only	Static	Static	Cidal at 8X only (slow killing)	Cidal at 4X and 8X (slow killing)	–	MIC [9]: > 64 µg/mL; MIC [10]: > 64 µg/mL; MIC ([11]; read-out: MIC, S. pneumoniae 303 Ery-R (ermB)): > 64 µg/mL; MIC ([11]; read-out: Minimum inhibitory concentration, S. pneumoniae 303 Ery-R (ermB)): > 64 µg/mL; MIC [12]: 2 µg/mL (≈ 2.67 µM); MIC (S. aureus ATCC 25923 [2]; [15]): 0.5 µg/mL (≈ 0.668 µM); MIC (S. aureus ATCC 25923 [2]; ATCC25923, read-out: MIC, S. aureus ATCC 25923): 0.5 µg/mL (≈ 0.668 µM); Emax (S. aureus ATCC 25923 [3]): −1.23 log10 units; Extracellular activity (24 h): Static dose (S. aureus ATCC 25923 [3]; pH 7.4): ~3.63 mg/L; Cs, static concentration at 24 h [6]: 11.6 mg/L; EC50 [6]: 2.66 X MIC; EC50 [6, 18]: 2.66 µg/mL (≈ 3.55 µM); Cs, static concentration at 24 h ([4]; L. p.): 2.90 mg/L; EC50 [4, 19]: 179.0 x MIC; Emax [4, 19]: −0.83 logo units; EC50 [4, 20]: 2.86 µg/mL (≈ 3.82 µM); time to achieve the antibacterial effect in broth (S. aureus (ATCC 25923)): 5 h; reduction of CFU in THP-1 macrophages [8]: no consistent activity was detected

From patent publication US9072759B2 (priority 2008, dated 2015)
